This passage reports AUC and IC50 results from the supplement of paper PMC4967469.

Holding throughout (assay): Viability of human cancer cell lines after 72 h of drug (GDSC screen)
Compound in one assay: CC[C@]1(O)C[C@@H]2CN(CCc3c([nH]c4ccccc34)[C@@](C(=O)OC)(c3cc4c(cc3OC)N(C)[C@H]3[C@@](O)(C(=O)OC)[C@H](OC(C)=O)[C@]5(CC)C=CCN6CC[C@]43[C@@H]65)C2)C1 [Vinblastine]
The following applies: top dose 0.1 µM; top dose inferred. Here is the method: (§1)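 Human cancer cell lines in 384-well plates, medium with 10% serum, drug for 72 h over a 256-fold dose range (nine 2-fold or five 4-fold steps up to the top dose). Adherent lines were fixed and stained with the nucleic acid dye Syto60, suspension lines read with resazurin; signal relative to control wells, capped at 0 and 100%. One two-parameter sigmoid per drug and line, fitted in a mixed model over all curves with the slope shared within a line.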

Compound in the next assay: CN(C)C/C=C/C(=O)Nc1cc2c(Nc3ccc(F)c(Cl)c3)ncnc2cc1O[C@H]1CCOC1 [Afatinib]
The method, then: as §1

Compound in the next assay: CC1(C)CC(=O)c2c(C(F)(F)F)nn(-c3ccc(C(N)=O)c(N[C@H]4CC[C@H](O)CC4)c3)c2C1 [SNX-2112]
The note with it: top dose 2.56 µM. Here is the method:
as §1

Compound in a further assay: O=C(NC1CC1)c1cccc(-c2ccc3c(NC(=O)C4CC4)n[nH]c3c2)c1 [XMD13-2]
The following applies: top dose 10.24 µM; top dose inferred. The method, then: as §1

Compound in a further assay: CN(c1ncccc1CNc1nc(Nc2ccc3c(c2)CC(=O)N3)ncc1C(F)(F)F)S(C)(=O)=O [PF-562271]
The following applies: top dose 2.56 µM; top dose inferred. Here is the method:
as §1

Setting [1] is: top dose 0.5 µM, screen: GDSC drug entry 1032.
Where [2] appears, read: top dose 10 µM, screen: GDSC drug entry 1377, top dose inferred.

IC50 is the fitted dose that halves viability relative to control wells, and lower means more sensitive; fits outside the tested doses are given as limits. AUC, from the same fit, is the share of area under the viability curve across the 256-fold dose range; values near 1 show little effect. For part of these data: A top dose marked as inferred was calculated from the reported fits. For part of these data: An entry number marks a drug with two screens in the source, which often give different values. Bounds are passed on as bounds.

Broadly, the IC50 is the concentration at which inhibition is half-maximal. As to “MOLT-16 (T-cell lymphoblastic leukaemia, suspension)”, the AUC was found to be 0.262 with Vinblastine, 0.96 in the assay with Afatinib (setting [1]) and 0.937 in the assay with Afatinib (setting [2]). For the same cell line, the IC50 with Vinblastine is 1.55 nM; with Afatinib (setting [1]), above 500 nM; with Afatinib (setting [2]) it was above 10000 nM.

As to NCC010 (kidney, adherent), the AUC stood at 0.864 in the assay with Vinblastine, 0.979 in the assay with Afatinib (setting [1]) and 0.919 in the assay with Afatinib (setting [2]). The IC50 with Vinblastine was 98 nM; with Afatinib (setting [1]), above 500 nM; with Afatinib (setting [2]), above 10000 nM.

“NCI-H1703 (lung adenocarcinoma, adherent)”: the AUC in the assay with SNX-2112 was determined as 0.733; with XMD13-2, 0.851; with Afatinib (setting [1]), 0.98; with Afatinib (setting [2]), 0.959; with PF-562271, 0.956. Besides, the IC50 is 869 nM in the assay with SNX-2112; above 10200 nM with XMD13-2; above 500 nM in the assay with Afatinib (setting [1]); above 10000 nM with Afatinib (setting [2]); above 2560 nM with PF-562271.

“NCI-H1993 (lung adenocarcinoma, adherent)”: the AUC came out at 0.928 with SNX-2112; 0.971 with XMD13-2; 0.943 with Afatinib (setting [1]); 0.981 in the assay with Afatinib (setting [2]); 0.971 in the assay with PF-562271. Also, the IC50 with SNX-2112 was above 2560 nM; with XMD13-2 it was above 10200 nM; with Afatinib (setting [1]), above 500 nM; with Afatinib (setting [2]), above 10000 nM; with PF-562271, above 2560 nM.

Consider “NCI-H2085 (lung adenocarcinoma, adherent)”, for which the AUC is 0.724 with SNX-2112, 0.977 with XMD13-2, 0.955 with Afatinib (setting [2]) and 0.926 with PF-562271. The IC50 with SNX-2112 was 733 nM; in the assay with XMD13-2, above 10200 nM; with Afatinib (setting [2]), above 10000 nM; in the assay with PF-562271, above 2560 nM.

In the case of “NCI-H2110 (non-small cell lung carcinoma, adherent)”, the AUC with SNX-2112 amounted to 0.314; with XMD13-2, 0.977; in the assay with Afatinib (setting [1]) it was 0.862; with Afatinib (setting [2]) it was 0.899; in the assay with PF-562271, 0.929. Also, the IC50 with SNX-2112 is 47.7 nM; with XMD13-2, above 10200 nM; in the assay with Afatinib (setting [1]), 445 nM; with Afatinib (setting [2]), above 10000 nM; with PF-562271, above 2560 nM.

Turning to NCI-N87 (stomach, adherent), in the assay with Vinblastine, the AUC is 0.502 and the IC50 stood at 6.34 nM.

On to NUGC-3 (stomach, adherent), for which the AUC with SNX-2112 stood at 0.81; in the assay with XMD13-2, 0.971; with Afatinib (setting [2]), 0.576; with PF-562271 it was 0.92. Also, the IC50 with SNX-2112 is 1560 nM; with XMD13-2, above 10200 nM; with Afatinib (setting [2]), 1040 nM; in the assay with PF-562271, above 2560 nM.

On to OAW-28 (ovary, adherent), for which the AUC amounted to 0.983 with SNX-2112, 0.895 in the assay with XMD13-2, 0.912 in the assay with Afatinib (setting [2]) and 0.966 with PF-562271. Besides, the IC50 is above 2560 nM with SNX-2112, above 10200 nM with XMD13-2, above 10000 nM with Afatinib (setting [2]) and above 2560 nM with PF-562271.

As for OSC-19 (head and neck, adherent), the AUC with SNX-2112 was 0.708; with XMD13-2 it was 0.944; with Afatinib (setting [2]), 0.696; with PF-562271, 0.932. The IC50 with SNX-2112 is 636 nM; in the assay with XMD13-2, above 10200 nM; in the assay with Afatinib (setting [2]), 2280 nM; with PF-562271, above 2560 nM.

For the cell line OSC-20 (head and neck, adherent), the AUC stood at 0.462 in the assay with SNX-2112; 0.934 with XMD13-2; 0.929 with Afatinib (setting [1]); 0.865 with Afatinib (setting [2]); 0.91 with PF-562271. Besides, the IC50 with SNX-2112 is 123 nM; with XMD13-2 it was above 10200 nM; with Afatinib (setting [1]), above 500 nM; with Afatinib (setting [2]) it was above 10000 nM; with PF-562271, above 2560 nM.

Take OVCAR-3 (ovary, adherent): the AUC with SNX-2112 came out at 0.98; with XMD13-2, 0.987; with Afatinib (setting [2]), 0.946; in the assay with PF-562271, 0.903. Also, the IC50 is above 2560 nM in the assay with SNX-2112, above 10200 nM in the assay with XMD13-2, above 10000 nM with Afatinib (setting [2]) and above 2560 nM with PF-562271.

As to OVCAR-8 (ovary, adherent), the AUC with SNX-2112 is 0.255; with XMD13-2 it was 0.949; in the assay with Afatinib (setting [1]), 0.976; with Afatinib (setting [2]), 0.944; with PF-562271, 0.958. The IC50 in the assay with SNX-2112 was 34.8 nM; with XMD13-2, above 10200 nM; with Afatinib (setting [1]), above 500 nM; with Afatinib (setting [2]) it was above 10000 nM; in the assay with PF-562271, above 2560 nM.

On to “P31-FUJ (acute myeloid leukaemia, suspension)”, for which the AUC with SNX-2112 was determined as 0.94; in the assay with XMD13-2, 0.982; in the assay with Afatinib (setting [1]), 0.996; in the assay with Afatinib (setting [2]), 0.996; with PF-562271, 0.995. Besides, the IC50 with SNX-2112 was above 2560 nM; with XMD13-2, above 10200 nM; with Afatinib (setting [1]), above 500 nM; with Afatinib (setting [2]), above 10000 nM; with PF-562271 it was above 2560 nM.
